US20240376128A1, “N-CYCLOPROPYLPYRIDO [4, 3-D] PYRIMIDIN-4-AMINE DERIVATIVES AND USES THEREOF” (Jacobio Pharmaceuticals Co., Ltd., priority 2021, published 2024)
Read-outs that look alike come from different tables or passages of the source.

What was measured:
[1] = molecular target: T1, K-Ras G12V (Homo sapiens, UniProt P01116, G12V); assay: SOS1 catalyzed nucleotide exchange assay (GDP form K-Ras), TR-FRET; conditions: read-out: Biochemical assays, IC50, K-Ras G12V GDP
Method: The parameters were F486: Excitation 340 nm, Emission 486 nm, Lag time 100 pas, Integration time 200 pas; F515: Excitation 340 nm, Emission 515 nm, Lag time 100 pas, Integration time 200 pas. TR-FRET ratios for each individual wells were calculated by equation: TR-FRET ratio=(Signal F515/Signal F486)*10000.

[2] = molecular target: K-Ras G12D (Homo sapiens, UniProt P01116, G12D); assay: GTP-K-Ras (GppNp-K-Ras) and cRAF interaction assay, HTRF; conditions: read-out: Biochemical assays, IC50, K-Ras G12D GppNp
Source text: (§1) GppNp is an analog of GTP.

[3] = molecular target: T1, K-Ras G12V; assay: as above; conditions: read-out: Biochemical assays, IC50, K-Ras G12V GppNp
Source text: as §1

[4] = tested on: K-Ras mutant and K-Ras WT cell lines indicated in Table 20; assay: 2D cell growth inhibition assay (CellTiter-Glo, 6 days); assay type: cell-based
Method: Each of cells in culture medium was plated in TC-treated 96-well plates at a density indicated in Table 20 and incubated in a cell incubator overnight.

[5] = Homo sapiens, SW-620, 144 h, SW620 (K-Ras G12V), absolute IC50, read-out: Cell Growth Inhibition, IC50, SW620

| Structure (SMILES) | IC50 [1] [nM] | IC50 [2] [nM] | IC50 [3] [nM] | IC50 ([4]; 144 h, AGS (K-Ras G12D), absolute IC50, read-out: Cell Growth Inhibition, IC50, AGS) [nM] | IC50 ([4]; Homo sapiens, ASPC1, 144 h, AsPC-1 (K-Ras G12D), absolute IC50, read-out: Cell Growth Inhibition, IC50, AsPC-1) [nM] | IC50 [4, 5] [nM] |
| --- | --- | --- | --- | --- | --- | --- |
| C#Cc1c(F)ccc2cc(O)cc(-c3ncc4c(N(CC(=O)OCC)C5CC5)nc(OC[C@@]56CCCN5C[C@H](F)C6)nc4c3F)c12 [Compound 38, Ethyl N-cyclopropyl-N-(7-(8-ethynyl-7-fluoro-3-hydroxynaphthalen-1-yl)-8-fluoro-2-(((2R, 7aS)-2-fluorotetrahydro-1H-pyrrolizin-7a(5H)-yl)methoxy)pyrido[4,3-d]pyrimidin-4-yl)glycinate 2,2,2-trifluoroacetic acid] | 121 | > 1000 | > 1000 | – | – | – |
| C#Cc1c(F)ccc2cc(O)cc(-c3ncc4c(N(C)[C@@H]5C[C@H]5C(F)(F)F)nc(OC[C@@]56CCCN5C[C@H](F)C6)nc4c3F)c12 [Compound 43, 5-ethynyl-6-fluoro-4-(8-fluoro-2-(((2R,7aS)-2-fluorotetrahydro-1H-pyrrolizin-7a(5H)-yl)methoxy)-4-(methyl(trans-2-(trifluoro-methyl)cyclopropyl)amino)pyrido[4,3-d]pyrimidin-7-yl)naphthalen-2-ol 2,2,2-trifluoroacetic acid] | 20.2 | > 1000 | > 1000 | – | – | – |
| C#Cc1c(F)ccc2cc(O)cc(-c3ncc4c(N(C)C5CC56CC6)nc(OC[C@@]56CCCN5C[C@H](F)C6)nc4c3F)c12 (stereo partly drawn) [Compound 51, 5-ethynyl-6-fluoro-4-(8-fluoro-2-(((2R,7aS)-2-fluorotetrahydro-1H-pyrrolizin-7a(5H)-yl)methoxy)-4-(methyl(spiro[2.2]pentan-1-yl)amino)pyrido[4,3-d]pyrimidin-7-yl)naphthalen-2-ol] | 16.2 | 744 | > 1000 | – | – | – |
| C#Cc1c(F)ccc2cc(O)cc(-c3ncc4c(N(C)[C@@H]5C[C@H]5COC)nc(OC[C@@]56CCCN5C[C@H](F)C6)nc4c3F)c12 [Compound 42, 5-ethynyl-6-fluoro-4-(8-fluoro-2-(((2R,7aS)-2-fluorotetrahydro-1H-pyrrolizin-7a(5H)-yl)methoxy)-4-((trans-2-(methoxymethyl)cyclopropyl)(methyl)amino)pyrido[4,3-d]pyrimidin-7-yl)naphthalen-2-ol 2,2,2-trifluoroacetic acid] | 34.7 | > 1000 | > 1000 | – | – | – |
| C#Cc1c(F)ccc2cc(O)cc(-c3ncc4c(N(C)[C@@H]5C[C@H]5OC)nc(OC[C@@]56CCCN5C[C@H](F)C6)nc4c3F)c12 [Compound 41, 5-ethynyl-6-fluoro-4-(8-fluoro-2-(((2R,7aS)-2-fluorotetrahydro-1H-pyrrolizin-7a(5H)-yl)methoxy)-4-((trans-2-methoxycyclo-propyl)(methyl)amino)pyrido[4,3-d]pyrimidin-7-yl)naphthalen-2-ol] | 25.9 | > 1000 | > 1000 | – | – | – |
| C#Cc1c(F)ccc2cc(O)cc(-c3ncc4c(N(CCOC)C5CC5)nc(OC[C@@]56CCCN5C[C@H](F)C6)nc4c3F)c12 [Compound 36, 4-(4-(cyclopropyl(2-methoxyethyl)amino)-8-fluoro-2-(((2R,7aS)-2-fluorotetrahydro-1H-pyrrolizin-7a(5H)-yl)methoxy)pyrido [4,3-d]pyrimidin-7-yl)-5-ethynyl-6-fluoro naphthalen-2-ol 2,2,2-trifluoroacetic acid] | 18.4 | > 1000 | > 1000 | – | – | – |
| C#Cc1c(F)ccc2cc(O)cc(-c3ncc4c(N(CCF)C5CC5)nc(OC[C@@]56CCCN5C[C@H](F)C6)nc4c3F)c12 [Compound 37, 4-(4-(cyclopropyl(2-fluoroethyl)amino)-8-fluoro-2-(((2R,7aS)-2-fluorotetrahydro-1H-pyrrolizin-7a(5H)-yl)methoxy)pyrido [4,3-d]pyrimidin-7-yl)-5-ethynyl-6-fluoro-naphthalen-2-ol 2,2,2-trifluoroacetic acid] | 24.5 | > 1000 | > 1000 | – | – | – |
| C#Cc1c(F)ccc2cc(O)cc(-c3ncc4c(N(C)[C@@H]5C[C@H]5F)nc(OC[C@@]56CCCN5C[C@H](F)C6)nc4c3F)c12 [Compound 3B, 5-ethynyl-6-fluoro-4-(8-fluoro-4-(((1R,2R)-2-fluorocyclopropyl)(methyl)amino)-2-(((2R,7aS)-2-fluorotetrahydro-1H-pyrrolizin-7a(5H)-yl)methoxy)pyrido[4,3-d]pyrimidin-7-yl)naphthalen-2-ol 2,2,2-trifluoroacetic acid] | 12.2 | 206 | 770 | 87.8 | 1290 | 120 |
| C#Cc1c(F)ccc2cc(O)cc(-c3ncc4c(N(C)C5CC56CCC6)nc(OC[C@@]56CCCN5C[C@H](F)C6)nc4c3F)c12 (stereo partly drawn) [Compound 52, 5-ethynyl-6-fluoro-4-(8-fluoro-2-(((2R,7aS)-2-fluorotetrahydro-1H-pyrrolizin-7a(5H)-yl)methoxy)-4-(methyl(spiro[2.3]hexan-1-yl)amino)pyrido[4,3-d]pyrimidin-7-yl)naphthalen-2-ol] | 76 | > 1000 | > 1000 | – | – | – |
| C#Cc1c(F)ccc2cc(O)cc(-c3ncc4c(N(C)[C@@H]5C[C@H]5F)nc(OC[C@@]56CCCN5C[C@H](O)C6)nc4c3F)c12 (mixture of isomers) [Compound 9, (2R,7aS)-7a-(((7-(8-ethynyl-7-fluoro-3-hydroxynaphthalen-1-yl)-8-fluoro-4-((trans-2-fluorocyclopropyl)(methyl)amino)pyrido[4,3-d]pyrimidin-2-yl)oxy)methyl)hexahydro-1H-pyrrolizin-2-ol 2,2,2-trifluoroacetic acid] | 4.42 | 66.7 | 161 | – | – | – |
| C#Cc1c(F)ccc2cc(O)cc(-c3ncc4c(NC5(C(F)(F)F)CC5)nc(OC[C@@]56CCCN5C[C@H](F)C6)nc4c3F)c12 [Compound 57, 5-ethynyl-6-fluoro-4-(8-fluoro-2-(((2R,7aS)-2-fluorotetrahydro-1H-pyrrolizin-7a(5H)-yl)methoxy)-4-((1-(trifluoromethyl)cyclopropyl)amino)pyrido[4,3-d]pyrimidin-7-yl)naphthalen-2-ol] | 15.1 | > 1000 | > 1000 | – | – | – |
| C#Cc1c(F)ccc2cc(O)cc(-c3nc(OC)c4c(NC5CC5)nc(OC[C@@]56CCCN5C[C@H](F)C6)nc4c3F)c12 [Compound 34, 4-(4-(cyclopropylamino)-8-fluoro-2-(((2R, 7aS)-2-fluorotetrahydro-1H-pyrrolizin-7a(5H)-yl)methoxy)-5-methoxypyrido[4,3-d]pyrimidin-7-yl)-5-ethynyl-6-fluoronaphthalen-2-ol] | 24 | 704 | > 1000 | – | – | – |
| C#Cc1c(F)ccc2cc(O)cc(-c3ncc4c(N(CC5CC5)C5CC5)nc(OC[C@@]56CCCN5C[C@H](F)C6)nc4c3F)c12 [Compound 14, 4-(4-(cyclopropyl(cyclopropylmethyl)amino)-8-fluoro-2-(((2R,7aS)-2-fluorotetrahydro-1H-pyrrolizin-7a(5H)-yl)methoxy)pyrido[4,3-d]pyrimidin-7-yl)-5-ethynyl-6-fluoronaphthalen-2-ol] | 8.85 | 607 | > 1000 | – | – | 259 |
| C#Cc1c(F)ccc2cc(O)cc(-c3ncc4c(N(C)[C@H]5C[C@@H]5C#N)nc(OC[C@@]56CCCN5C[C@H](F)C6)nc4c3F)c12 (racemic) [Compound 44, trans-2-((7-(8-ethynyl-7-fluoro-3-hydroxynaphthalen-1-yl)-8-fluoro-2-(((2R,7aS)-2-fluorotetrahydro-1H-pyrrolizin-7a(5H)-yl)methoxy)pyrido[4,3-d]pyrimidin-4-yl) (methyl)amino)cyclopropane-1-carbonitrile 2,2,2-trifluoroacetic acid] | 13.9 | > 1000 | > 1000 | – | – | – |
| C#Cc1c(F)ccc2cc(O)cc(-c3nc(C#N)c4c(N(C)C5CC5)nc(OC[C@@]56CCCN5C[C@H](F)C6)nc4c3F)c12 [Compound 35, 4-(cyclopropyl(methyl)amino)-7-(8-ethynyl-7-fluoro-3-hydroxynaphthalen-1-yl)-8-fluoro-2-(((2R,7aS)-2-fluorotetrahydro-1H-pyrrolizin-7a(5H)-yl)methoxy)pyrido[4,3-d] pyrimidine-5-carbonitrile] | 117 | > 1000 | > 1000 | – | – | – |
